# The supplement of paper PMC11417369
# This is one part of the list.
# Tested on: PfHDP1 homeodomain (GST-tagged)
# Experiment: gcPBM binding intensity (ln(normalized median fluorescence intensity)); higher = stronger DNA binding
# Summary of the method: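 In this array assay, P. falciparum DNA-binding domains with a GST tag, expressed in E. coli, were applied for 1 h to primer-extended double-stranded 36-bp intergenic genomic probes and negative controls on an Agilent 4 × 180k array. Bound protein was visualised with Alexa488 anti-GST antibody at 488 nm. Binding intensity is the highest Masliner-normalised natural-log median intensity across replicate spots of either probe orientation.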
row,Sequence,gcPBM binding intensity (ln)
1,ATGGATTTTACCATAGCACACATATATGAATATTTT [CACACA_site8535],6.49
2,AAAATTCAGCGAAAGGGTACATATGTGTAAGGGTAA [XGTACX_site8205],7.43
3,TATATTTATATACCAACACACATACATATTTATATA [CACACA_site6931],6.62
4,CTATTATATCAGTAGACACACATATAACATTTATAT [CACACA_site141],6.67
5,ATATAAAAAAAAAAAAAAAAATATATATATATATAT [GTGCAC_negctrl_site251],9.37
6,GATATACTGTCAATTCTACACACCATAGGGGGAGCA [CACACA_site8562],7.33
7,TTGGTTTGAAAGAAAGAAATTATTAAAAAGGAAATA [CACACA_negctrl_site26],6.34
8,GTATGAAAAAAAATATGTACACATATATATTTGGTA [XGTACX_site6309],6.45
9,TTGTGTTCTTATTTTTACACCGAAAAATATTAAAAG [CACACA_negctrl_site535],6.6
10,CCTTTATACATTTTCTGTACTGATATATATTAAAAA [XGTACX_site8467],6.83
11,TACTGATCCACATTTATACACACCTCGGTTTGTAGA [CACACA_site417],6.84
12,ATATATATATATACAACACACATGTAATATATAAAT [CACACA_site3294],9.13
13,TATAGATTCTTTTAATGTACATGTCTTTTCATTTCC [XGTACX_site8348],6.45
14,TTTTTAAATATATAATAGAATTGATTGTATTATATA [CACACA_negctrl_site196],6.04
15,GAAAATATATTATTTACACACATGTTCAAATTAAAA [CACACA_site3761],6.59
16,AAACAATTTATGTGTAGTACATGTTGGAGATAATTT [XGTACX_site6000],6.69
17,TATTAAATATAAGTCACACATAATTTTTCGTCCTTT [CACACA_site5065],6.24
18,TTGTTTTTTTCTTTTTGTACATATACAACATACATA [XGTACX_site8996],6.79
19,CATACACCCGGACACACACACACACCCATATATAAT [CACACA_site4494],7.24
20,ATCATAACACCTCCACACAAATAAATATAACATATA [XGTACX_negctrl_site269],6.73
21,ATGAGTGCACAAATATATATATATATATATATATAT [CACACA_negctrl_site404],10.7
22,GTTATACGCATATATACACACATATGTAAATATATA [CACACA_site3280],7.08

row,Sequence,gcPBM binding intensity (ln)
1,CTTTTTATTAAATATGCATGTGTATCAACAGTGAAT [TGCATGCA_site447],6.81
2,TAAAAAAAATAGCATACACACATATATACCTATATA [CACACA_site4535],6.2
3,ATTTATTTTAATTTTTTTTTTTCTCTTTTGGATCTA [CACACA_negctrl_site1408],5.79
4,AATGAATTTAATTCTACTATTTTTTTTTTAAATATT [XGTACX_negctrl_site296],6
5,TTCTCAAAGTTTACGTGTACATAAATTATATAAATG [XGTACX_site2622],6.52
6,TGTAATATGAAATGTGTACACACGCACCCACAAAAA [CACACA_site8948],7.66
7,ATTAGGCATATTTTCTGTACACAATAATAAAAAAAA [XGTACX_site3957],6.54
8,AAACAAAGGGAACATGTGCACTTACAAAAAAAAAGA,9.91
9,AATAGATATATAAATACACACAAACATACCTATATA [CACACA_site7823],6.88
10,TCACACCTTTTTGGTTGTACTTAAATTTCTTTTTTT [XGTACX_site6438],5.88
11,ATATATATATATGCATGTACATATATTTGTTATATC [XGTACX_site3197],9.16
12,TTCCCTTATTTTGTATGTACACAATTTATCATGTTG [XGTACX_site2896],7
13,AAAAAAAAAAAAATGGTGCAACTTTGTTAAAGGAAA [GTGCAC_site9950],9.48
14,ATTTAAAAGTTGGTAGTGCATTAAAAATAACAAAAA [GTGCAC_site9835],9.69
15,AATTTCTTCCATTGTAGTACTCAATTTTTTTTTGTT [XGTACX_site5847],7.33
16,CACATATACAAAAAGAAATGTTTAGTTGAAAATTAA [CACACA_negctrl_site1407],5.98
17,GTGTAATATTATATATATATATATAATATATATACA [CACACA_negctrl_site263],6.51
18,GACAGATTATAGCATAGTACTCATACATACATACAT [XGTACX_site1252],7.37
19,TACATACATACATACACACACACATCTATATTTATA [CACACA_site6171],7.5
20,TTTCAAAAATTATTTTGTACATATAATTAATATACG [XGTACX_site512],6.34
21,TTTTATTATTTGTCTTGTACTCATTGTAAGAGTATG [XGTACX_site1538],6.55
22,ATTAAATACATTAACACACACACAAATAAATACATA [CACACA_site5583],7
